According to PubChem BioAssay AID1347165 (National Center for Advancing Translational Sciences (NCATS), 2019):
Out of some 220,000 compounds screened, about 5,700 (2.6%) were called active. This list was built around the results that the source calls inconclusive (neither active nor inactive); the mix of calls is not that of the screen. The call rests on the fitted dose curve; in most records, active means well fitted inhibition curve with a large enough effect; inconclusive means small, poorly fitted or top-dose-only effect; inactive means no such curve, though single readings can be large or run the other way. Potencies beside an inconclusive call are fits to weak or partial responses and may not hold up.

target: Lysine-specific demethylase 5B (Homo sapiens) (UniProt Q9UGL1); assay: Primary screen for KDM5B Histone Demethylases FDH-coupled qHTS; conditions: FDH-coupled NADH fluorescence (FDH is formaldehyde dehydrogenase); activity change, negative = inhibition: at 57.7 µM (top of the series) unless noted; further: nearly all actives have a fitted effect of over 70% in size; on activity change, negative = inhibition: 0% is about no effect
Chain of UniProt Q9UGL1 (Q9UGL1 whole entry, looked up, the tested form may be a part): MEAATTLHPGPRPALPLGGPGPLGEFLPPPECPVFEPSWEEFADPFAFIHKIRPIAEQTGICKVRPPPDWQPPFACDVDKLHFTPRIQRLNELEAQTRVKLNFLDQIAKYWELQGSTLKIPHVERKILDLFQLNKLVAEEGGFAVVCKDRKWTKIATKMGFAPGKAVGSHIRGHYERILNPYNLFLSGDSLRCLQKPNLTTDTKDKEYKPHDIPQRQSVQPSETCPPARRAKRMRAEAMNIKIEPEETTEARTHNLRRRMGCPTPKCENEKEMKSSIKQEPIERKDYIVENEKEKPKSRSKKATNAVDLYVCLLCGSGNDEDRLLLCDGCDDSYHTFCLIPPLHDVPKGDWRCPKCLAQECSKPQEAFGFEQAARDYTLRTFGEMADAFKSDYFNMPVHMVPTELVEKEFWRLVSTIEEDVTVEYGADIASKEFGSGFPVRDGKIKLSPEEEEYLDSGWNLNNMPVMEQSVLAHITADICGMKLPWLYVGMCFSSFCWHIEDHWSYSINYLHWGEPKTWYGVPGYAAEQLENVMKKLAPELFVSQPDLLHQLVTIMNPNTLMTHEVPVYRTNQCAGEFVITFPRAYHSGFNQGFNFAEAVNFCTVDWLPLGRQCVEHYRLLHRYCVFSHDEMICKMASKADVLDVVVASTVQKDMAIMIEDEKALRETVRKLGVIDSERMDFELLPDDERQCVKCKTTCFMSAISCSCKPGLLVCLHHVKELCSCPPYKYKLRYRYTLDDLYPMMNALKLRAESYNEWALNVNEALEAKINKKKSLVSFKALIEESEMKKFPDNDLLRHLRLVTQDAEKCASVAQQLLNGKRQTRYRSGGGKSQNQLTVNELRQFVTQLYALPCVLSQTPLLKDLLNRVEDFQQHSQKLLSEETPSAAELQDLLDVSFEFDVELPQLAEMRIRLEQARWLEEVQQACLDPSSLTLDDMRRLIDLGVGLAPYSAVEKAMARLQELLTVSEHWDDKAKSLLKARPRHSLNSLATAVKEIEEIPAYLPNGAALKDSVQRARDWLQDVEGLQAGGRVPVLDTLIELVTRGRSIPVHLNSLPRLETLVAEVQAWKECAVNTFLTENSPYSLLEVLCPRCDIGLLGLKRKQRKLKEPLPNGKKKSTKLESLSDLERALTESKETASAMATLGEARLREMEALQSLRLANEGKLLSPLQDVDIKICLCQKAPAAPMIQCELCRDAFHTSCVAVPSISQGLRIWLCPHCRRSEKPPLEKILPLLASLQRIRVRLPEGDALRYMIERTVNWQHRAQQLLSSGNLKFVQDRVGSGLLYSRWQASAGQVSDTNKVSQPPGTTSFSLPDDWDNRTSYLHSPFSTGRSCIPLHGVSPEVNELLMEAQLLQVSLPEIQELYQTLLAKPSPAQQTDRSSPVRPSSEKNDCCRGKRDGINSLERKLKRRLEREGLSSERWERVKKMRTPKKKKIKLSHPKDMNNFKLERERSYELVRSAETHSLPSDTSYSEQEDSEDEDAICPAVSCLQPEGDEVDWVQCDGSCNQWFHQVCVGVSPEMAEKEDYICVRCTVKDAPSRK
Summary of the method: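 Inhibition is measured as reduced NADH fluorescence generation from FDH coupling to formaldehyde release. Truncated KDM5BΔAP at 200 nM final acts on H3K4me3 peptide (12.5 µM in substrate mix) in pH 7.5 HEPES buffer with Tween-20, 30 min, room temperature.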
Potency means the concentration at half of the fitted maximal effect; tags describe the fitted curve by direction and shape.

Compound | activity change, negative = inhibition | Potency
COC(=O)c1c(C)sc(-c2c(-c3cccc(OC)c3)[nH]c3c2c(=O)[nH]c(=O)n3C)c1O | inconclusive: -38.6% [inhibitor] | –
Cn1ccc2c(C(=O)NCc3cccnc3)nc(-c3ccccc3C(F)(F)F)cc21 | – | active: 35.5 µM
O=C(NCC(F)(F)F)c1cc(C2CC2)nc2onc(C3CCCN3)c12 (stereo not given) | – | inconclusive: 56.2 µM [inhibitor, partial curve, poor fit]
COC(=O)[C@@H]1Cc2ncn(Cc3ccc(Cl)cc3)c2CN1Cc1cccnc1 | – | inconclusive: 31.6 µM [inhibitor, partial curve, poor fit]
C=CCC(O)(CC=C)C(C)NC(=O)c1ccc(OC2CCN(Cc3ccccn3)CC2)cc1 (stereo not given) | inactive: -38.7% | –
COc1ccccc1C(=O)Nc1nnc(S(=O)(=O)N2CCCCCC2)s1 | – | inconclusive: 1.58 µM [inhibitor, partial curve, poor fit]
CCOc1ccccc1C(=O)Nc1ccc(S(=O)(=O)N2CCCCC2c2cccnc2)cc1 (stereo not given) | – | inconclusive: 28.2 µM [inhibitor, partial curve, poor fit]
COc1ccc(-c2nc(CNS(=O)(=O)c3ccc(C)cc3)cs2)cc1 | – | inconclusive: 25.1 µM [inhibitor, partial curve, poor fit]
Cc1noc(-c2ccco2)c1C(=O)NCCC(c1ccccc1)c1ccccc1 | – | inconclusive: 31.6 µM [inhibitor, partial curve, poor fit]
CCOc1ccc(CCNc2nc3c(-c4ccc(C)cc4)nnn3c3ccccc23)cc1OCC | inactive: -7.22% | –
Cc1ccc2[nH]c(C(=O)NCc3ccccc3C)cc2c1 | – | inconclusive: 39.8 µM [inhibitor, single point]
CCCCCCCc1c(C(=O)O)c2ccccc2c2ccccc12 | inactive: -2.33% | –
Cn1ccnc1C(O)C1CCN(C(=O)Cc2c[nH]c(=O)n(C)c2=O)CC1 (stereo not given) | – | inconclusive: 35.5 µM [inhibitor, partial curve, poor fit]
C=C(C)COc1ccc2c(=O)c(Oc3ccccc3Br)c(C)oc2c1 | inactive: 5.47% | –
CC1CCCCN1CC(=O)N1CCCc2c1c(=O)oc1ccc(OCc3ccccc3)cc21 (stereo not given) | – | inconclusive: 28.2 µM [inhibitor, partial curve, poor fit]
O=C(NCc1ccc(Cl)cc1)c1cnn2ncccc12 | – | active: 35.5 µM
O=C(O)CCS(=O)(=O)Cc1cccc(Br)c1 | inactive: 10.9% | –
COc1ccccc1C(=O)Nc1ccc(-c2nc3ccccc3s2)c(C)c1 | – | inconclusive: 17.8 µM [inhibitor, partial curve, poor fit]
Cc1cc(Br)ccc1NC(=O)C1(S(=O)(=O)c2ccc(Cl)cc2)CC1 | – | inconclusive: 39.8 µM [inhibitor, single point]
CCN(CC)c1cc(CCC(=O)N2CCN(c3ccc(Cl)cc3)CC2)ccn1 | – | inconclusive: 15.8 µM [inhibitor, partial curve, poor fit]

Compound | activity change, negative = inhibition | Potency
O=C(CN1CCN(c2nc(-c3cccs3)nc3scc(-c4ccccc4)c23)CC1)N1CCCC1 | inactive: -20.4% | –
COc1ccc(-c2nc3ccccc3n2Cc2ccc(Cl)cc2)cc1 | – | inconclusive: 35.5 µM [inhibitor, partial curve, poor fit]
O=C(OCc1cc(=O)n2c3c(sc2n1)CCCC3)c1cccc(NC(=O)c2ccccc2F)c1 | – | inconclusive: 1.41 µM [inhibitor, partial curve, poor fit]
O=C(CC1Nc2ccccc2NC1=O)Nc1cccc(C(F)(F)F)c1 (stereo not given) | – | inconclusive: 39.8 µM [inhibitor, single point]
Cc1ccc(N2CCN(C(=O)C3CC(=O)N(c4n[nH]c5cccc(F)c45)C3)CC2)c(C)c1 (stereo not given) | – | inconclusive: 15.8 µM [inhibitor, partial curve, poor fit]
COc1cc(C)ccc1OCCSc1nnc(-c2ccc(C)cc2)o1 | – | inconclusive: 1.58 µM [inhibitor, full curve, poor fit]
O=C(C1CCCC1)N1CC2(CCN(Cc3ccccn3)C2)OCc2ccccc21 (stereo not given) | – | inconclusive: 50.1 µM [inhibitor, partial curve, poor fit]
CCOc1ccc(NC(=O)CSC2=Nc3ccccc3C3=NC(CC(=O)NCc4ccc5c(c4)OCO5)C(=O)N23)cc1 (stereo not given) | – | inconclusive: 1.58 µM [inhibitor, full curve, poor fit]
CN(CC(=O)NCc1ccc(F)cc1)CC(=O)Nc1ccc(Cl)c(C(F)(F)F)c1 | – | inconclusive: 35.5 µM [inhibitor, partial curve, poor fit]
COc1ccc(CC(=O)Nc2cc(-c3cn4cccnc4n3)ccc2C)cc1OC | – | inconclusive: 14.1 µM [inhibitor, partial curve, poor fit]
CC1=C(c2ccc(C(C)C)cc2)S(=O)(=O)N=C1N1CCC(C(=O)NCc2ccccc2)CC1 | inactive: 4.34% | –
COC(=O)c1cc(-c2ccc(C)o2)nc2ccccc12 | – | inconclusive: 25.1 µM [inhibitor, partial curve, poor fit]
OCc1ccc(CN2Cc3[nH]cnc3C[C@H]2c2nc(-c3ccncc3)no2)o1 | – | inconclusive: 14.1 µM [inhibitor, partial curve]
c1ccc(Cn2ncc3c2CCCC3NCc2ccsc2)cc1 (stereo not given) | inactive: 4.97% | –
c1ccc(OCCn2c(CN3CCCCCC3)nc3ccccc32)cc1 | inactive: 9.84% | –
Cc1cn2nc(C(=O)N3CCC(NC(=O)c4sccc4C)CC3)cc2c(=O)[nH]1 | – | inconclusive: 35.5 µM [inhibitor, partial curve, poor fit]
Cn1cc(CN2C[C@@H]3C[C@H]2C(=O)N(CC2CC2)c2ccccc2O3)c2ccccc21 | – | inconclusive: 39.8 µM [inhibitor, partial curve, poor fit]
Cn1nc(-c2ccc(N3CCOCC3)c([N+](=O)[O-])c2)c2ccccc2c1=O | inactive: -1.91% | –
Cc1ccc(CNC(=O)N2CC[C@@H]3C(=O)NCCCCCCN(Cc4ccncc4)[C@@H]3C2)cc1 | – | inconclusive: 39.8 µM [inhibitor, partial curve, poor fit]
O=C(c1nc(-c2ccc(Cl)cc2Cl)c2ccccn12)N1CCCC1 | – | inconclusive: 56.2 µM [inhibitor, partial curve, poor fit]
